According to US8334315B2, “Substituted aromatic carboxamide and urea derivatives as vanilloid receptor ligands” (Gruenenthal GmbH, priority 2009, dated 2012):
For some assays here: At least one read-out could not be matched to a standard name with certainty. For some assays here: For at least one compound, name, drawing or mass did not settle the structure.

Columns and labels:
male mice (NMRI) = experiment: Formalin test carried out on mice (FTm); assay type: in vivo; conditions: second phase
hVR1 [1] = biological target: T1, hVR1 (Homo sapiens, UniProt Q8NER1); experiment: Functional test on hVR1 after pH stimulus; assay type: cell-based, human being; design: key to IC50 (human being) hVR1, pH: agonist / partial agonist / no effect: AG=agonist; pAG=partial agonist; NE=no effect; conditions: for IC50: read-out: IC50 (human being) hVR1, pH: agonist / partial agonist / no effect
T1 construct: expressed in transfected cells; host or cells: CHO K1 cells (ECACC), stably transfected

hVR1 [2] = biological target: T1, hVR1; experiment: Functional test on VR1, FLIPR Ca2+ influx in transfected CHO K1 cells, capsaicin; assay type: cell-based, human being; design: key: AG=agonist; pAG=partial agonist; NE=no effect
Text: In the process, the Ca^2+ influx is quantified in the FLIPR assay with the aid of a Ca^2+-sensitive dye (type Fluo-4, Molecular Probes Europe BV, Leiden, the Netherlands) in a fluorescent imaging plate reader (FLIPR, Molecular Devices, Sunnyvale, USA), as described hereinafter.
II. Functional Tests Carried Out on the Vanilloid Receptor (VR1)
The agonistic or antagonistic effect of the substances to be tested on the vanilloid receptor 1 (VR1) can also be determined using the following assay. In this assay, the influx of Ca^2+ through the channel is quantified with the aid of a Ca^2+-sensitive dye (type Fluo-4, Molecular Probes Europe BV, Leiden, the Netherlands) in a fluorescent imaging plate reader (FLIPR, Molecular Devices, Sunnyvale, USA).
Chinese hamster ovary cells (CHO K1 cells, European Collection of Cell Cultures (ECACC) United Kingdom) are stably transfected with the VR1 gene. For functional testing, these cells are plated out on poly-D-lysine-coated black 96-well plates having a clear base (BD Biosciences, Heidelberg, Germany) at a density of 25,000 cells/well. The cells are incubated overnight at 37° C. and 5% CO2 in a culture medium (Ham's F12 nutrient mixture, 10% by volume of FCS (foetal calf serum), 18 μg/ml of L-proline). The next day the cells are incubated with Fluo-4 (Fluo-4 2 μM, 0.01% by volume of Pluronic F127, Molecular Probes in HBSS (Hank's buffered saline solution), Gibco Invitrogen GmbH, Karlsruhe, Germany) for 30 minutes at 37° C. Subsequently, the plates are washed three times with HBSS buffer and after further incubation for 15 minutes at RT used for Ca^2+ measurement in a FLIPR assay. The Ca^2+-dependent fluorescence is measured before and after the addition of the substances to be tested (λex wavelength=488 nm, λem=540 nm). Quantification is carried out by measuring the highest fluorescence intensity (FC, fluorescence counts) over time.
The FLIPR protocol consists of 2 substance additions. First the compounds to be tested (10 μM) are pipetted onto the cells and the Ca^2+ influx is compared with the control (capsaicin 10 μM) (% activation based on the Ca^2+ signal after the addition of 10 μM of capsaicin). After 5 minutes' incubation, 100 nM of capsaicin are applied and the Ca^2+ influx is also determined.
Desensitising agonists and antagonists led to suppression of the Ca^2+ influx. […]
Starting from the percentage displacement caused by different concentrations of the compounds to be tested of general formula I, IC50 inhibitory concentrations which cause a 50-per cent displacement of capsaicin were calculated. […]
The affinity of the compounds according to the invention for the vanilloid receptor 1 (VR1/TRPV1 receptor) was determined as described hereinbefore (pharmacological methods I and II respectively).

T1 sequence (Q8NER1 whole entry): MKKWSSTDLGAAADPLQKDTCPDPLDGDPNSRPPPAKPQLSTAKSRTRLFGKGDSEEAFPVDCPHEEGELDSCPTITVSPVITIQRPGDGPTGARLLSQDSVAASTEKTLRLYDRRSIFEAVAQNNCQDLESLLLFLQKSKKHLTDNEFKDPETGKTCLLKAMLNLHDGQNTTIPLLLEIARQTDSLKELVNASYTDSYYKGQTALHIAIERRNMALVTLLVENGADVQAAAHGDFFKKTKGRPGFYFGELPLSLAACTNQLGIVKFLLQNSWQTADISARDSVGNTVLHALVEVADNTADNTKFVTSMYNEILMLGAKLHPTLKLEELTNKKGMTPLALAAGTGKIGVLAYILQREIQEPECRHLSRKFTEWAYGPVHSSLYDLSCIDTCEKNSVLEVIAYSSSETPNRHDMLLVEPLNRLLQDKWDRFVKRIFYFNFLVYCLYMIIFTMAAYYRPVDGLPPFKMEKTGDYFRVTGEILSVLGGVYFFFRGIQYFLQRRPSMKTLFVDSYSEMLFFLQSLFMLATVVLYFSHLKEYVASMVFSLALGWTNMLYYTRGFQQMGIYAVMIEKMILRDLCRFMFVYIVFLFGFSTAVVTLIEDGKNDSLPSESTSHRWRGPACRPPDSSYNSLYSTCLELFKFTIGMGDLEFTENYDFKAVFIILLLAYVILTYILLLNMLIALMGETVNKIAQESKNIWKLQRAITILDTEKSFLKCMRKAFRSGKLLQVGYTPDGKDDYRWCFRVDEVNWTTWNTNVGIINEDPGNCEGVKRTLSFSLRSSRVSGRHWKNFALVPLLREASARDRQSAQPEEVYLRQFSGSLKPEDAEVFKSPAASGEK

## CC(C(=O)NCc1cc(C(C)(C)C)nn1-c1cccc(Cl)c1)c1ccc2c(c1)OCO2 (centres unmarked) [Example 11, 2-(benzo[d][1,3]dioxol-5-yl)-N-((3-tert-butyl-1-(3-chlorophenyl)-1H-pyrazol-5-yl)methyl)propanamide]
Male mice (NMRI); 0.1 iv
  FTm (formalin test, percentage change relative to control): 0.1 iv FTm 61%

## CC(C(=O)NCc1cc(C(C)(C)C)nn1-c1cccc(Cl)c1)c1cccc2cnccc12 (centres unmarked) [Example 63, N-((3-tert-butyl-1-(3-chlorophenyl)-1H-pyrazol-5-yl)methyl)-2-(isoquinolin-5-yl)propanamide]
Male mice (NMRI); 1 po
  FTm (formalin test, percentage change relative to control): 1 po FTm 43%

## CC(C(=O)NCc1cc(C(C)(C)C)nn1-c1ccc(F)c(Cl)c1)c1cccc2cnccc12 (centres unmarked) [Example 69, N-((3-tert-butyl-1-(3-chloro-4-fluorophenyl)-1H-pyrazol-5-yl)methyl)-2-(isoquinolin-5-yl)propanamide]
Male mice (NMRI); 1 po
  FTm (formalin test, percentage change relative to control): 1 po FTm 1%

## CC(C(=O)NCc1cc(C(F)(F)F)nn1-c1cccc(Cl)c1)c1cccc2c1CC=C2 (centres unmarked) [Example 24, N-((1-(3-chlorophenyl)-3-(trifluoromethyl)-1H-pyrazol-5-yl)methyl)-2-(1H-inden-7-yl)propanamide]
hVR1 [1]
  IC50: > 10 µM

## Cc1nc2ccc(C(C)C(=O)NCc3cc(C(F)(F)F)nn3-c3cccc(Cl)c3)cc2s1 (centres unmarked) [Example 45, N-((1-(3-chlorophenyl)-3-(trifluoromethyl)-1H-pyrazol-5-yl)methyl)-2-(2-methylbenzo[d]thiazol-6-yl)propanamide]
Male mice (NMRI); 1 po
  FTm (formalin test, percentage change relative to control): 1 po FTm 20%

## CC(C)(C)c1cc(CNC(=O)Cc2ccc3c(c2)OCCO3)n(-c2ccc(Cl)cc2)n1 [Example 12, N-((3-tert-butyl-1-(4-chlorophenyl)-1H-pyrazol-5-yl)methyl)-2-(2,3-dihydrobenzo[b][1,4]dioxin-6-yl)acetamide]
hVR1 [1]
  IC50: > 10 µM

## CC(C(=O)NCc1cc(C(F)(F)F)nn1-c1cccc(Cl)c1)c1cccc2cnccc12 (centres unmarked) [Example 64, N-((1-(3-chlorophenyl)-3-(trifluoromethyl)-1H-pyrazol-5-yl)methyl)-2-(isoquinolin-5-yl)propanamide]
hVR1 [1]
  IC50: > 10 µM
Male mice (NMRI); 1 iv
  FTm (formalin test, percentage change relative to control): 1 iv FTm 58%

## CC(C(=O)NCc1cc(C(C)(C)C)nn1-c1cccc(Cl)c1)c1ccc2cccnc2c1 (centres unmarked) [Example 71, N-((3-tert-butyl-1-(3-chlorophenyl)-1H-pyrazol-5-yl)methyl)-2-(quinolin-7-yl)propanamide]
hVR1 [1]
  IC50: > 10 µM

## CC(C(=O)NCc1cc(C(F)(F)F)nn1-c1cccc(Cl)c1)c1ccc2ncsc2c1 (centres unmarked) [Example 42, 2-(benzo[d]thiazol-6-yl)-N-((1-(3-chlorophenyl)-3-(trifluoromethyl)-1H-pyrazol-5-yl)methyl)propanamide]
hVR1 [2]
  Ki (human being) [nM] Cap: agonist / partial agonist / no effect: pAG

## CC(C(=O)NCc1cc(C(F)(F)F)nn1-c1cccc(Cl)c1)c1ccc2cc(O)ccc2c1 (centres unmarked) [Example 50, N-((1-(3-chlorophenyl)-3-(trifluoromethyl)-1H-pyrazol-5-yl)methyl)-2-(6-hydroxynaphthalen-2-yl)propanamide]
Male mice (NMRI); 0.1 iv
  FTm (formalin test, percentage change relative to control): 0.1 iv FTm 56%

## CC(C)(C)c1cc(CNC(=O)Nc2cnc3ccccc3c2)n(-c2cccc(Cl)c2)n1 [Example 113, 1-((3-tert-butyl-1-(3-chlorophenyl)-1H-pyrazol-5-yl)methyl)-3-(quinolin-3-yl)urea]
hVR1 [1]
  IC50: > 10 µM

## CC(C(=O)NCc1cc(C(C)(C)C)nn1-c1cccc(Cl)c1)c1cccc2[nH]ccc12 (centres unmarked) [Example 25, N-((3-tert-butyl-1-(3-chlorophenyl)-1H-pyrazol-5-yl)methyl)-2-(1H-indol-4-yl)propanamide]
hVR1 [2]
  Ki (human being) [nM] Cap: agonist / partial agonist / no effect: pAG
hVR1 [1]
  IC50 (human being) hVR1, pH: agonist / partial agonist / no effect: pAG

## CC(C(=O)NCc1cc(C(F)(F)F)nn1-c1cccc(Cl)c1)c1cccc2c1CCC2O (centres unmarked) [Example 207, N-((1-(3-chlorophenyl)-3-(trifluoromethyl)-1H-pyrazol-5-yl)methyl)-2-(1-hydroxy-2,3-dihydro-1H-inden-4-yl)propanamide]
hVR1 [2]
  Ki (human being) [nM] Cap: agonist / partial agonist / no effect: pAG

## CC(C)(C)c1cc(CNC(=O)Nc2ccc3c(c2)CCC3)n(-c2cccc(Cl)c2)n1 [Example 79, 1-((3-tert-butyl-1-(3-chlorophenyl)-1H-pyrazol-5-yl)methyl)-3-(2,3-dihydro-1H-inden-5-yl)urea]
Male mice (NMRI); 1 po
  FTm (formalin test, percentage change relative to control): 1 po FTm 44%

## CC(C(=O)NCc1cc(C(F)(F)F)nn1-c1cccc(Cl)c1)c1cccc2[nH]ncc12 (centres unmarked) [Example 27, N-((1-(3-chlorophenyl)-3-(trifluoromethyl)-1H-pyrazol-5-yl)methyl)-2-(1H-indazol-4-yl)propanamide]
Male mice (NMRI); 1 po
  FTm (formalin test, percentage change relative to control): 1 po FTm 38%

## CC(C(=O)NCc1cc(C(C)(C)C)nn1-c1cccc(Cl)c1)c1ccc2c(c1)OCCO2 (centres unmarked) [Example 13, N-((3-tert-butyl-1-(3-chlorophenyl)-1H-pyrazol-5-yl)methyl)-2-(2,3-dihydrobenzo[b][1,4]dioxin-6-yl)propanamide]
Male mice (NMRI); 1 iv
  FTm (formalin test, percentage change relative to control): 1 iv FTm 99%

## CC(C(=O)NCc1cc(C(F)(F)F)nn1-c1cccc(Cl)c1)c1cccc2ncoc12 (centres unmarked) [Example 37, 2-(benzo[d]oxazol-7-yl)-N-((1-(3-chlorophenyl)-3-(trifluoromethyl)-1H-pyrazol-5-yl)methyl)propanamide]
hVR1 [2]
  Ki (human being) [nM] Cap: agonist / partial agonist / no effect: AG

## CC(C(=O)NCc1cc(C(C)(C)C)nn1-c1cccc(Cl)c1)c1ccc2nccnc2c1 (centres unmarked) [Example 77, N-((3-tert-butyl-1-(3-chlorophenyl)-1H-pyrazol-5-yl)methyl)-2-(quinoxalin-6-yl)propanamide]
Male mice (NMRI); 3 po
  FTm (formalin test, percentage change relative to control): 3 po FTm 78%
